Measured values taken from publication PMC4336329 (PLoS ONE, 2015).
Among all 310,000 compounds or so, about 2,200 (0.71%) showed an effect of 50% or more. The effect is printed as a negative number. The list shows a part of the results.

target: human ether-à-go-go-related gene (hERG) potassium channel (human, UniProt Q12809); assay: primary screen, population patch clamp on CHO cells stably expressing hERG
Sequence (Q12809 whole entry, looked up): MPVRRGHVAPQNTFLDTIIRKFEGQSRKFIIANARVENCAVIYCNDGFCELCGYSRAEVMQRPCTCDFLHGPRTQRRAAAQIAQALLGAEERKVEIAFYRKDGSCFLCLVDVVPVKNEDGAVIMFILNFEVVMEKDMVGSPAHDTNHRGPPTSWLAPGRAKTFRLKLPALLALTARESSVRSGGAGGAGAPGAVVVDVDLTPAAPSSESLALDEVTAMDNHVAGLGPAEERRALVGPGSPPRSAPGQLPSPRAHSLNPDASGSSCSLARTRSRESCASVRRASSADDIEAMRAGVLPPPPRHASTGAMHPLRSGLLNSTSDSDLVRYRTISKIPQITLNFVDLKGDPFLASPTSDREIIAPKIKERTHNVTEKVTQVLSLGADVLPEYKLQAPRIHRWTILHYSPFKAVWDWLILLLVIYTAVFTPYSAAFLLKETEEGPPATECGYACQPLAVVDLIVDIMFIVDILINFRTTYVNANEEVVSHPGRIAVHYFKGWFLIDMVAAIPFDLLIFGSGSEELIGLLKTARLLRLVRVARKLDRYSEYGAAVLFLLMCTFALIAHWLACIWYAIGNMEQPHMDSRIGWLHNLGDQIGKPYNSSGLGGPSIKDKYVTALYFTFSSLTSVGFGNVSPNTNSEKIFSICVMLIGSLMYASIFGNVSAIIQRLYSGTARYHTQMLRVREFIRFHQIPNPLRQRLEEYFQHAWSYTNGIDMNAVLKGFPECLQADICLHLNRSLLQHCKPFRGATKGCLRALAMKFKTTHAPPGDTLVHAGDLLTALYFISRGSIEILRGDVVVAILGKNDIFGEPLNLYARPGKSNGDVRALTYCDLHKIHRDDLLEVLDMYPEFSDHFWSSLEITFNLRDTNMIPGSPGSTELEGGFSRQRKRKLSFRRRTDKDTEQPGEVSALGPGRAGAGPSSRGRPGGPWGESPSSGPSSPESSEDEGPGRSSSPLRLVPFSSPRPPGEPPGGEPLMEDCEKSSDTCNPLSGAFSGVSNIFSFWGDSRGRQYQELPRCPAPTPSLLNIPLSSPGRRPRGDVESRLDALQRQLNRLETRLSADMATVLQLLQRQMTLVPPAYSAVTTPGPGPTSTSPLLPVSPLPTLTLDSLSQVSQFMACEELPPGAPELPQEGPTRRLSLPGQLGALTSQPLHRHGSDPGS

SMILES	hERG current change (%, negative = inhibition) at 1uM
CCN(CC)S(=O)(=O)c1cccc(C(=O)OC2CC(C)OC2=O)c1 (stereo not shown)	17.5%
Cc1ccc(NC(=O)CN2CCc3ccccc3C2)cc1S(=O)(=O)N1CCOCC1	17.2%
COc1ccccc1/C=C(/C(=O)OCC(=O)Nc1cc(C)ccc1C)c1ccccc1	8.44%
COc1ccc(-n2nc(C(=O)NCC(=O)NCCc3ccc(OC)c(OC)c3)c3ccccc3c2=O)cc1Cl	16.3%
Cc1cc(C)nc(NC(=O)NS(=O)(=O)Nc2ccc(Br)cn2)n1	13.7%
Cc1ccc2nc(N3CCN(C(=O)c4ccc(F)cc4)CC3)c(C#N)cc2c1	-56.8%
COCCNC(=O)C(=O)NCC1OCCCN1S(=O)(=O)c1cccs1 (stereo not shown)	3.14%
Cc1cccn2c(CN(C)C3CCOC3)c(C(=O)N3CCCCC3)nc12 (stereo not shown)	27.4%
Cc1ccccc1CNC(=O)C(=O)NCCC1CCCCN1S(=O)(=O)c1cccs1 (stereo not shown)	9.93%
COc1ccc(NC(=O)CCn2c(=O)c3cccn3c3ccccc32)cc1	9.21%
Cn1c(=O)c2c(nc(N3CCNCC3)n2Cc2ccccc2Cl)n(C)c1=O	16.8%
CCOC(=O)CSc1n[nH]c(-c2ccco2)n1	11.6%
COc1cccc(C(=O)Nc2ccc(NC(C)=O)cn2)c1	10.4%
CN=C(Nc1ccccc1OC)SC1CC(=O)N(c2ccc(C(=O)OC)cc2)C1=O (stereo not shown)	-5.59%
Cc1nn(Cc2ccccc2)c(C)c1NC(=O)c1cc(-c2cccs2)on1	-2.3%
C/C(=N\OCC(=O)Nn1c(C)nc2ccccc2c1=O)c1ccccc1	7.36%
Cc1ccc(/C=N/N2CCN(Cc3ccccc3)CC2)s1	11.7%
NNc1ccc(Cc2ccc(Cl)cc2Cl)nn1	7.64%
CN1CCC(c2c[nH]c3ccccc23)C1 (stereo not shown)	12%
COc1ccc(NC(=O)NCc2ccccc2F)cc1OC	10.2%
O=C(N/N=C/C1CC=CCC1)c1cc(-c2cccnc2)nc2ccccc12 (stereo not shown)	-0.786%
COC(=O)c1ccc(NC(=O)c2cc(-c3ccncc3)nc3ccccc23)cc1	17.6%

SMILES	hERG current change (%, negative = inhibition) at 1uM
CCN1C(=O)[C@H]2[C@@H](c3ccc(-c4cc(C(C)=O)cs4)cc3)N3CCCC[C@@]3(C(=O)OC)[C@H]2C1=O.O=C(O)C(F)(F)F	6.02%
CCC[C@@H]1CCCO[C@@](C(=O)NCc2cc(C)n(C)n2)(C(F)(F)F)C1	10.1%
Cn1c(-c2ccsc2)c(-c2cccs2)c2cc(Br)ccc21	11.7%
C=CCc1c(C)nc(SC(C)C)[nH]c1=O	3.21%
Cc1c(C(=O)O)oc2c1ccc1ccccc12	22.3%
C=CCn1c(=NC(=O)c2ccc(S(=O)(=O)N3CCc4ccccc4C3)cc2)sc2cc(S(N)(=O)=O)ccc21	-7.13%
COc1cccc(NC(=O)c2ccccc2)c1	8.87%
CCOC(=O)C(=CNc1cc(OC)ccc1-n1cccc1)C(=O)OCC	-6.49%
COc1ccc(N2CCN(C(=O)c3cc(-c4cccs4)nc4ccccc34)CC2)cc1	14.1%
CN(C)CCCN(C(=O)COc1ccc(Cl)cc1)c1nc2cc3c(cc2s1)OCO3.Cl	-0.552%
Nn1cnnc1SCC(=O)Nc1ccc2c(c1)OCCO2	5.22%
CC(=O)c1ccc(OCc2cc(C(=O)NCCN3CCCC(O)C3)no2)cc1 (stereo not shown)	7.33%
O=C(NC(=S)N(Cc1ccccc1)c1ccccn1)C1CC1	8.54%
Cc1ccc(S(=O)(=O)Nc2ccc(-c3csc(-c4ccccc4)n3)cc2)cc1	-0.991%
O=C(CSCCc1ccccn1)Nc1cccnc1Cl	7.69%
C[C@H](NC(=O)c1ncn(Cc2ccccc2)c1C(=O)N[C@@H](C)c1ccccc1)c1ccccc1	10.3%
CCCCCCCC(=O)NC(Nc1ccccc1OC)C(Cl)(Cl)Cl (stereo not shown)	12.4%
COc1ccc(C(=O)N(Cc2ccccc2)c2ccc(C)cc2)cc1S(=O)(=O)N1CCOCC1	-6.17%
CN(C)S(=O)(=O)c1cccc(NC(=S)NCc2ccc3c(c2)OCO3)c1	10.6%
Cc1ccccc1N1CCN(S(=O)(=O)c2nnc(NC(=O)c3ccc(F)cc3)s2)CC1	24.9%
O=CNCCc1nc2ccccc2n1CCc1ccccc1	16.2%
